Reference: the supplement of paper PMC7125110
± gives the standard error. This sample is rich in variants without activity.

B1: glmS ribozyme (parent)
chain: AUAAAAGCGCCAGAACUACAGAAAUGUAGUUGACGAGGAGGAGGUUUAUCGAAUUUUCGGCGGAUGCCUCCAAA

Assays:
Details in all cases: with glucosamine-6-phosphate
[1] = variants of: B1; experiment: self-cleavage kobs at 40 uM GlcN6P; higher = faster cleavage; RNA array
Summary of the method: (§1)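 Tracking of barcoded ribozyme variants used a hybridised Cy3 probe at 37 °C, after in situ transcription by E. coli RNA polymerase on sequenced MiSeq chips. The flowed solution held 40 μM to 10 mM glucosamine-6-phosphate in HEPES/KCl/Mg(OAc)2 buffer, and imaging ran over ~14 h. kobs was taken from exponential decay fits of normalised per-tile medians, and kcat and KM from weighted Michaelis–Menten fits.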

[2] = variants of: B1; experiment: self-cleavage kobs at 10000 uM GlcN6P; higher = faster cleavage; RNA array
Summary of the method: as §1

[3] = variants of: B1; experiment: self-cleavage kobs at 640 uM GlcN6P; higher = faster cleavage; RNA array
Summary of the method: as §1

[4] = variants of: B1; experiment: self-cleavage kobs at 2500 uM GlcN6P; higher = faster cleavage; RNA array
Summary of the method: as §1

[5] = variants of: B1; experiment: self-cleavage kobs at 160 uM GlcN6P; higher = faster cleavage; RNA array
Summary of the method: as §1

Variant | self-cleavage kobs at 40 uM GlcN6P [1] [s⁻¹] | self-cleavage kobs at 10000 uM GlcN6P [2] [s⁻¹] | self-cleavage kobs at 640 uM GlcN6P [3] [s⁻¹] | self-cleavage kobs at 2500 uM GlcN6P [4] [s⁻¹] | self-cleavage kobs at 160 uM GlcN6P [5] [s⁻¹]
G40A U46G G60C C67A C70U | < 1e-05 | < 1e-05 | – | – | –
G40A U47A | 0.000132 ± 2.1e-05 | 0.00398 ± 0.00077 | 0.00126 ± 0.00024 | 0.0033 ± 0.00065 | –
G40A U49G U65G C67A C71G | < 1e-05 | < 1e-05 | – | – | –
G40A U54C | 0.000248 ± 5.6e-05 | 0.00467 ± 0.0012 | 0.00211 ± 0.0003 | 0.00449 ± 0.0013 | 0.000724 ± 0.00016
G40A U57G | < 1e-05 | – | < 1e-05 | < 1e-05 | –
G40A U69G | < 1e-05 | < 1e-05 | < 1e-05 | < 1e-05 | < 1e-05
G40C A52G U55G | < 1e-05 | – | – | 4.2e-05 ± 1.1e-05 | –
G40C A53G G63A | < 1e-05 | < 1e-05 | – | – | –
G40C C58G | < 1e-05 | – | < 1e-05 | < 1e-05 | < 1e-05
G40C C58G C67U | < 1e-05 | – | – | – | –
G40C C68G | < 1e-05 | < 1e-05 | – | < 1e-05 | < 1e-05
G40C C71A | 0.000225 ± 3.8e-05 | 0.00527 ± 0.00096 | 0.00213 ± 0.00024 | – | 0.000451 ± 6.2e-05
G40C G41A C70U | 8.35e-05 ± 2.8e-05 | – | – | 0.000861 ± 0.00023 | –
G40C G43A U47G | < 1e-05 | – | – | – | –
G40C G44A G66U | < 1e-05 | < 1e-05 | < 1e-05 | – | –
G40C G59A U65G | < 1e-05 | – | – | – | –
G40C G60A C67U | < 1e-05 | < 1e-05 | – | – | –
G40C G60U U69C | < 1e-05 | < 1e-05 | – | < 1e-05 | –
G40C G62A | < 1e-05 | < 1e-05 | – | < 1e-05 | < 1e-05
G40C U49C U57A | < 1e-05 | – | – | – | –
G40C U56A G62C | < 1e-05 | – | – | – | –
G40U A48C G59A | < 1e-05 | < 1e-05 | – | – | –
G40U A64U | < 1e-05 | – | – | – | < 1e-05

Variant | self-cleavage kobs at 40 uM GlcN6P [1] [s⁻¹] | self-cleavage kobs at 10000 uM GlcN6P [2] [s⁻¹] | self-cleavage kobs at 640 uM GlcN6P [3] [s⁻¹] | self-cleavage kobs at 2500 uM GlcN6P [4] [s⁻¹] | self-cleavage kobs at 160 uM GlcN6P [5] [s⁻¹]
G40U C58A | < 1e-05 | 3.81e-05 ± 9.5e-06 | – | – | < 1e-05
G40U C61U C71G | < 1e-05 | – | – | – | –
G40U C68U | < 1e-05 | – | < 1e-05 | – | < 1e-05
G40U G41C U47C C68A | < 1e-05 | < 1e-05 | – | – | –
G40U G43C | < 1e-05 | – | < 1e-05 | – | < 1e-05
G40U G51A U54A A64U | < 1e-05 | – | – | – | –
G40U G59C G60U C70G | < 1e-05 | < 1e-05 | – | – | –
G40U G59U | < 1e-05 | – | – | – | < 1e-05
G40U G60U | < 1e-05 | < 1e-05 | < 1e-05 | < 1e-05 | < 1e-05
G40U G62U | < 1e-05 | < 1e-05 | < 1e-05 | < 1e-05 | < 1e-05
G40U U45A C50A C67A | < 1e-05 | – | < 1e-05 | – | –
G40U U47A C70G | < 1e-05 | – | – | – | –
G40U U47C | 3.24e-05 ± 8.9e-06 | 0.00106 ± 0.00013 | 0.000287 ± 3.6e-05 | 0.000958 ± 0.00014 | 0.000104 ± 2.3e-05
G40U U56A | 6.75e-05 ± 1.3e-05 | 0.00344 ± 0.00064 | 0.000381 ± 4.4e-05 | 0.00116 ± 0.00022 | 0.000124 ± 3.2e-05
G40U U57A C68A | < 1e-05 | – | < 1e-05 | – | –
G40U U57G | < 1e-05 | – | – | – | –
G41A A52U | < 1e-05 | 9.26e-05 ± 1.6e-05 | – | – | –
G41A C50A U57A | < 1e-05 | < 1e-05 | – | < 1e-05 | < 1e-05
G41A C50U | < 1e-05 | < 1e-05 | < 1e-05 | < 1e-05 | < 1e-05
G41A C61A | < 1e-05 | < 1e-05 | < 1e-05 | < 1e-05 | < 1e-05
G41A C71A | 2.7e-05 ± 8.9e-06 | 0.000248 ± 2.8e-05 | 0.000125 ± 1.7e-05 | 0.000308 ± 5.6e-05 | 5.23e-05 ± 1.1e-05
G41A G43A U49G C70G | < 1e-05 | < 1e-05 | – | – | –
G41A G43C | < 1e-05 | < 1e-05 | < 1e-05 | < 1e-05 | < 1e-05

Variant | self-cleavage kobs at 40 uM GlcN6P [1] [s⁻¹] | self-cleavage kobs at 10000 uM GlcN6P [2] [s⁻¹] | self-cleavage kobs at 640 uM GlcN6P [3] [s⁻¹] | self-cleavage kobs at 2500 uM GlcN6P [4] [s⁻¹] | self-cleavage kobs at 160 uM GlcN6P [5] [s⁻¹]
G41A G43U | < 1e-05 | < 1e-05 | < 1e-05 | – | < 1e-05
G41A G43U G62C | < 1e-05 | – | – | – | –
G41A G44U | < 1e-05 | < 1e-05 | < 1e-05 | – | < 1e-05
G41A G59A | < 1e-05 | – | – | – | –
G41A U49C | < 1e-05 | – | < 1e-05 | < 1e-05 | < 1e-05
G41A U55C | < 1e-05 | – | – | – | –
G41C | 1.75e-05 ± 1.7e-06 | – | – | – | –
G41C A48G | < 1e-05 | < 1e-05 | < 1e-05 | < 1e-05 | –
G41C A52C | < 1e-05 | < 1e-05 | < 1e-05 | < 1e-05 | < 1e-05
G41C A52G | < 1e-05 | – | – | – | –
G41C C50A | < 1e-05 | < 1e-05 | < 1e-05 | < 1e-05 | < 1e-05
G41C C58A | < 1e-05 | < 1e-05 | – | – | < 1e-05
G41C C61U U69C | < 1e-05 | < 1e-05 | < 1e-05 | < 1e-05 | < 1e-05
G41C G43U | < 1e-05 | – | – | – | –
G41C G44U G66U | < 1e-05 | – | – | – | –
G41C G62U | < 1e-05 | < 1e-05 | < 1e-05 | – | –
G41C G63A C68A C70G | < 1e-05 | – | – | – | –
G41C U46C G60C | < 1e-05 | < 1e-05 | – | – | < 1e-05
G41C U47C C68U | < 1e-05 | – | < 1e-05 | – | –
G41C U55A | < 1e-05 | 7.36e-05 ± 2e-05 | – | 5.87e-05 ± 2e-05 | –
G41C U56C | < 1e-05 | – | – | – | < 1e-05
G41C U57C | < 1e-05 | < 1e-05 | – | < 1e-05 | < 1e-05
G41U A42G | 4.79e-05 ± 9.1e-06 | 0.000843 ± 0.00012 | 0.000285 ± 6.2e-05 | 0.000816 ± 0.00012 | 9.47e-05 ± 2e-05

Variant | self-cleavage kobs at 40 uM GlcN6P [1] [s⁻¹] | self-cleavage kobs at 10000 uM GlcN6P [2] [s⁻¹] | self-cleavage kobs at 640 uM GlcN6P [3] [s⁻¹] | self-cleavage kobs at 2500 uM GlcN6P [4] [s⁻¹] | self-cleavage kobs at 160 uM GlcN6P [5] [s⁻¹]
G41U A42G G44A A48G | < 1e-05 | – | < 1e-05 | – | –
G41U A48U U55A | < 1e-05 | – | – | – | –
G41U A53G | 0.000167 ± 2.7e-05 | – | 0.00133 ± 0.0002 | 0.000959 ± 0.00015 | 0.000362 ± 7.8e-05
G41U A64C | < 1e-05 | < 1e-05 | < 1e-05 | < 1e-05 | –
G41U A64U | < 1e-05 | – | < 1e-05 | – | –
G41U C50U G59U G66U | < 1e-05 | – | – | – | –
G41U C61G | < 1e-05 | < 1e-05 | < 1e-05 | < 1e-05 | < 1e-05
G41U C61U U65A | < 1e-05 | < 1e-05 | < 1e-05 | < 1e-05 | –
G41U G43U G44U U56C | < 1e-05 | – | < 1e-05 | – | –
G41U G51C | < 1e-05 | < 1e-05 | < 1e-05 | – | < 1e-05
G41U G51U G63U C68G | < 1e-05 | < 1e-05 | – | – | –
G41U G66A | 7.21e-05 ± 1.7e-05 | 0.00299 ± 0.00054 | 0.000701 ± 0.00023 | 0.00141 ± 0.00028 | 0.000253 ± 7.9e-05
G41U U45A | 8.05e-05 ± 2.1e-05 | 0.000309 ± 5.5e-05 | – | – | –
G41U U47A | 7.19e-05 ± 1.3e-05 | 0.000706 ± 0.00012 | 0.000232 ± 5.2e-05 | 0.000656 ± 0.00012 | 0.000127 ± 3.9e-05
G41U U55A G63A | < 1e-05 | < 1e-05 | – | – | –
G41U U57C C61U | < 1e-05 | – | – | – | –
G41U U57G | < 1e-05 | – | < 1e-05 | – | < 1e-05
A42C | < 1e-05 | – | – | – | < 1e-05
A42C A52U C61U | < 1e-05 | – | < 1e-05 | – | –
A42C A53C C68U | < 1e-05 | – | < 1e-05 | < 1e-05 | –
A42C A64C | < 1e-05 | < 1e-05 | < 1e-05 | – | < 1e-05
A42C C58G | < 1e-05 | < 1e-05 | – | < 1e-05 | –
